# Reference: the supplement of paper PMC8728848
# This is one part of the list.
# Key:
# Test in all cases: glycan array binding signal (z-score within array); higher = stronger binding
# Conditions in all cases: glycan notation: IUPAC condensed, linker removed
# [1] = target: Gal(b1-4)GlcNAc(b1-3)[Gal(b1-4)GlcNAc(b1-6)]GalNAc
# How it was run: (§1)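 From the Consortium for Functional Glycomics database, 3228 arrays were curated, keeping only those whose protein sequence was available. Binding is given as a within-array Z-score averaged across arrays sharing a protein sequence and across linkers. Negative Z-scores can be read as non-binding.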
# [2] = target: Gal(b1-4)GlcNAc(b1-6)GalNAc
# How it was run: as §1
# [3] = target: Gal(b1-4)GlcNAc(b1-6)[Gal(b1-3)]GalNAc
# How it was run: as §1
# [4] = target: Gal(b1-4)GlcNAc(b1-6)[Gal(b1-3)]GlcNAc
# How it was run: as §1
# [5] = target: Gal3S(b1-3)GalNAc
# How it was run: as §1
# [6] = target: Gal3S(b1-3)GlcNAc
# How it was run: as §1
# [7] = target: Gal3S(b1-3)[Fuc(a1-4)]GlcNAc
# How it was run: as §1
# [8] = target: Gal3S(b1-4)Glc
# How it was run: as §1
# [9] = target: Gal3S(b1-4)Glc6S
# How it was run: as §1
# [10] = target: Gal3S(b1-4)GlcNAc
# How it was run: as §1
# [11] = target: Gal3S(b1-4)GlcNAc6S
# How it was run: as §1
# [12] = target: Gal3S6S(b1-4)GlcNAc
# How it was run: as §1
# [13] = target: Gal3S6S(b1-4)GlcNAc6S
# How it was run: as §1
# [14] = target: Gal4S(b1-4)GlcNAc
# How it was run: as §1
# [15] = target: Gal4S6S(b1-4)GlcNAc
# How it was run: as §1
# [16] = target: Gal6S(b1-4)Glc
# How it was run: as §1
# [17] = target: Gal6S(b1-4)Glc6S
# How it was run: as §1
# [18] = target: Gal6S(b1-4)GlcNAc
# How it was run: as §1
# [19] = target: GalNAc(a1-3)Gal
# How it was run: as §1
# [20] = target: GalNAc(a1-3)GalNAc
# How it was run: as §1
# [21] = target: GalNAc(b1-3)Gal(a1-4)Gal(b1-4)GlcNAc
# How it was run: as §1
# [22] = target: GalNAc(b1-4)GlcNAc
# How it was run: as §1
# [23] = target: Glc(a1-4)Glc
# How it was run: as §1
# [24] = target: Glc(a1-6)Glc(a1-6)Glc
# How it was run: as §1
# [25] = target: Glc(b1-4)Glc
# How it was run: as §1
# [26] = target: Glc(b1-6)Glc
# How it was run: as §1
# [27] = target: GlcA(b1-3)Gal
# How it was run: as §1
# [28] = target: GlcA(b1-6)Gal
# How it was run: as §1
# [29] = target: GlcNAc(a1-3)Gal(b1-4)GlcNAc
# How it was run: as §1
# [30] = target: GlcNAc(a1-6)Gal(b1-4)GlcNAc
# How it was run: as §1
# [31] = target: GlcNAc(b1-2)Gal(b1-3)GlcNAc
# How it was run: as §1
# [32] = target: GlcNAc(b1-2)Man(a1-3)[GlcNAc(b1-2)Man(a1-6)]Man(b1-4)GlcNAc(b1-4)GlcNAc
# How it was run: as §1
# [33] = target: GlcNAc(b1-3)Gal
# How it was run: as §1
# [34] = target: GlcNAc(b1-3)Gal(b1-3)GalNAc
# How it was run: as §1
# [35] = target: GlcNAc(b1-3)Gal(b1-4)Glc
# How it was run: as §1
# [36] = target: GlcNAc(b1-3)Gal(b1-4)GlcNAc
# How it was run: as §1
# [37] = target: GlcNAc(b1-3)Gal(b1-4)GlcNAc(b1-3)Gal(b1-4)GlcNAc
# How it was run: as §1
binder,measurement,setting,value
RNase 1 (Homo sapiens) (protein) KESRAKKFQRQHMDSDSSPSSSSTYCNQMMRRRNMTQGRCKPVNTFVHEPLVDVQNVCFQEKVTCKNGQGNCYKSNSSMHITDCRLTNGSRYPNCAYRTSPKERHIIVACEGSPYVPVHFDASVEDST,glycan array binding signal (z-score),[1],-0.216
same,glycan array binding signal (z-score),[2],-0.221
same,glycan array binding signal (z-score),[3],-0.205
same,glycan array binding signal (z-score),[4],-0.197
same,glycan array binding signal (z-score),[5],-0.186
same,glycan array binding signal (z-score),[6],-0.127
same,glycan array binding signal (z-score),[7],-0.179
same,glycan array binding signal (z-score),[8],-0.184
same,glycan array binding signal (z-score),[9],-0.033
same,glycan array binding signal (z-score),[10],-0.17
same,glycan array binding signal (z-score),[11],-0.098
same,glycan array binding signal (z-score),[12],-0.091
same,glycan array binding signal (z-score),[13],-0.178
same,glycan array binding signal (z-score),[14],0.34
same,glycan array binding signal (z-score),[15],-0.035
same,glycan array binding signal (z-score),[16],-0.073
same,glycan array binding signal (z-score),[17],-0.067
same,glycan array binding signal (z-score),[18],-0.2
same,glycan array binding signal (z-score),[19],-0.222
same,glycan array binding signal (z-score),[20],-0.137
same,glycan array binding signal (z-score),[21],0.455
same,glycan array binding signal (z-score),[22],-0.186
same,glycan array binding signal (z-score),[23],-0.235
same,glycan array binding signal (z-score),[24],-0.187
same,glycan array binding signal (z-score),[25],-0.207
same,glycan array binding signal (z-score),[26],-0.174
same,glycan array binding signal (z-score),[27],-0.161
same,glycan array binding signal (z-score),[28],-0.088
same,glycan array binding signal (z-score),[29],-0.233
same,glycan array binding signal (z-score),[30],-0.17
same,glycan array binding signal (z-score),[31],0.031
same,glycan array binding signal (z-score),[32],-0.106
same,glycan array binding signal (z-score),[33],-0.181
same,glycan array binding signal (z-score),[34],-0.194
same,glycan array binding signal (z-score),[35],-0.099
same,glycan array binding signal (z-score),[36],-0.212
same,glycan array binding signal (z-score),[37],-0.245
